Data: paper PMC4336329 (PLoS ONE, 2015)
In all, about 310,000 compounds went through this assay and about 14,000 (4.5%) showed an effect of 50% or more. Effects have a minus sign here. Some of the results follow.

target: human ether-à-go-go-related gene (hERG) potassium channel (human, UniProt Q12809); assay: primary screen, population patch clamp on CHO cells stably expressing hERG
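Note: peak tail current of the secondary pulse compared with the same well before compound.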

Sequence of human ether-à-go-go-related gene (hERG) potassium channel (Q12809 whole entry, looked up): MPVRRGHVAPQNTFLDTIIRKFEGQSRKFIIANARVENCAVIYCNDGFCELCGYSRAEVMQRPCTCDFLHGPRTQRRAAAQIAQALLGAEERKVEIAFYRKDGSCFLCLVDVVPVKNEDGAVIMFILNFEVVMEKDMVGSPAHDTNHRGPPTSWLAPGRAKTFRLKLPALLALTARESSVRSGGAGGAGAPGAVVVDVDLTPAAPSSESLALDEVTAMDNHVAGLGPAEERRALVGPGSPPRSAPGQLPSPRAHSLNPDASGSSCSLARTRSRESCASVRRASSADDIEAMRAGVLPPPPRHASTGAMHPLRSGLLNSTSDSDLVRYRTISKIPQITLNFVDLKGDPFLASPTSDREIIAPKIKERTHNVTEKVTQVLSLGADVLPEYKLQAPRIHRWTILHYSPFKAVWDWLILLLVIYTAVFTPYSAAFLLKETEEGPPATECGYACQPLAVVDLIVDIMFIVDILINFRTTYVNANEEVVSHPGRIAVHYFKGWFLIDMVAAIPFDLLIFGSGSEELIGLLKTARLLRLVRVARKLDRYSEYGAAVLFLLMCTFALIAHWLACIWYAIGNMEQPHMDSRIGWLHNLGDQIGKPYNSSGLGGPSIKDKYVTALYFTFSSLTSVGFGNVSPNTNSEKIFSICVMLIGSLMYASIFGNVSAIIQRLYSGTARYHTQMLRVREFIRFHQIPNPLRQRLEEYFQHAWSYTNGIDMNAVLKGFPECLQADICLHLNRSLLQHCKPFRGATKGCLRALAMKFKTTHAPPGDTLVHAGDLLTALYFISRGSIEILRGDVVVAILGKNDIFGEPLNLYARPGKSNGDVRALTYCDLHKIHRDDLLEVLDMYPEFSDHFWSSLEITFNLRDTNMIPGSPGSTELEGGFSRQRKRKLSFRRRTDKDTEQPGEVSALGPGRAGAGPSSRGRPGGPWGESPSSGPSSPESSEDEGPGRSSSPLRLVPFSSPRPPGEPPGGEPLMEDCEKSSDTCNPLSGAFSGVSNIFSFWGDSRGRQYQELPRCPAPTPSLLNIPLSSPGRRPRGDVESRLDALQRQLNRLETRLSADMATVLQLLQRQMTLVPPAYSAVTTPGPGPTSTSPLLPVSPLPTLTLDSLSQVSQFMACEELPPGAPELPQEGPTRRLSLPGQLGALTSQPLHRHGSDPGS

SMILES | hERG current change (%, negative = inhibition) at 10uM [%]
Cc1ccc(-c2cc(C(=O)Nc3ccc(S(=O)(=O)Nc4onc(C)c4C)cc3)c3ccccc3n2)cc1 | 4.48
O=C(NCc1cccs1)C1CCC(CNS(=O)(=O)c2ccccc2)CC1 (stereo not drawn) | -2.7
O=C(Cc1ccc(Br)c2ccccc12)N/N=C/c1ccccn1 | -31
COc1cccc(NC(=O)N(CCN(C)C)C(C)c2cccnc2)c1 (stereo not drawn) | -20.7
O=C(N/N=C\c1c(O)ccc2ccccc12)c1cncc(Br)c1 | 0.171
CCOC(=O)CN1C(=O)S/C(=C/c2ccco2)C1=O | 9.39
Cc1ccccc1C(=O)/C=C1/SCC(=O)N1C | 15.4
Cc1cccc(C(=O)NNC(=O)c2ccco2)c1 | 16.2
O=C(NNC(=O)c1ccccc1Cl)c1ccco1 | 3.95
CCN(Cc1ccccc1)C(=O)CSc1nc(C)cc(C)c1C#N | -26.1
CC1(C(=O)O)CCC(C(=O)NC2CCCCCC2)C1(C)C (stereo not drawn) | -0.798
CN1CCc2nc(SCC(=O)Nc3ccc(OC(F)(F)F)cc3)c(C#N)c(-c3cccs3)c2C1 | -12.8
CCN(CC)c1ccc(/C=N/N2C(=O)c3ccccc3C2=O)c(O)c1 | -10.6
Cc1ccc(C2=Nc3ccccc3SC(c3cccc([N+](=O)[O-])c3)C2)cc1 (stereo not drawn) | 19.8
COc1ccccc1Nc1nc2nonc2nc1N1CCC(C)CC1 | 7.23
O=C(NCC(c1cccnc1)N1CCN(c2ccc(F)cc2)CC1)Oc1ccccc1 (stereo not drawn) | -26.4
CC(OC(=O)Cc1c[nH]c2ccccc12)C(=O)c1ccccc1 (stereo not drawn) | -7.25
COc1ccc(-c2[nH]c(-c3ccc(C)cc3)nc2SCC(=O)Nc2nccs2)cc1 | 26.3
COCCCNC(=O)c1ccc2nc(Cc3ccc(OC)cc3)oc2c1 | 12
Cn1c(C(=O)N[C@@H](Cc2ccccc2)C(=O)O)cc2cc(Cl)ccc21 | 20.5
Cc1nn(CCc2nn[nH]n2)c2nc(-c3ccc(Br)cc3)cc(C(F)(F)F)c12 | 39.8
Cc1ccc(S(=O)(=O)NCC(c2ccco2)N2CCc3ccccc3C2)cc1 (stereo not drawn) | -2.97
O=C(N=NC(=O)c1ccc2c(O)n(C3CCCCC3)c(O)c2c1)c1cccnc1 | 7.84
N#Cc1c(-c2ccccc2)oc(=O)c2ccccc12 | 6.72
